≈ marks a conversion by molar mass, not a printed value.
Assays:
Assay in all cases: ≥ marks a high value that may be exact or a test limit, other limits are often not marked
Staphylococcus xylosus = tested on: Staphylococcus xylosus
[1] = tested on: Escherichia coli DH5alpha
Micrococcus luteus = tested on: Micrococcus luteus
Staphylococcus aureus = tested on: Staphylococcus aureus
Leuconostoc lactis = tested on: Leuconostoc lactis
[2] = tested on: Staphylococcus epidermidis
Escherichia coli = tested on: Escherichia coli
Pasteurella multocida = tested on: Pasteurella multocida
Streptococcus uberis = tested on: Streptococcus uberis
Listeria innocua = tested on: Listeria innocua
Bacillus cereus = tested on: Bacillus cereus
Klebsiella pneumoniae = tested on: Klebsiella pneumoniae
Proteus mirabilis = tested on: Proteus mirabilis
Shigella dysenteriae = tested on: Shigella dysenteriae
Pseudomonas aeruginosa = tested on: Pseudomonas aeruginosa
Bacillus subtilis = tested on: Bacillus subtilis
Salmonella typhimurium = tested on: Salmonella typhimurium
[3] = tested on: Staphylococcus aureus NCTC 10788
[4] = tested on: Candida albicans NCPF 1467
[5] = tested on: Escherichia coli NCTC 10418
[6] = tested on: Salmonella enterica subsp. enterica serovar Enteritidis
Micrococcus luteus A270 = tested on: Micrococcus luteus A270

## CC[C@H](C)[C@H](N)C(=O)N[C@@H](CC(C)C)C(=O)N[C@H](C(=O)N[C@@H](CC(C)C)C(=O)N[C@H](C(=O)N[C@@H](CC(C)C)C(=O)N[C@H](C(=O)N[C@@H](CC(C)C)C(=O)N[C@@H](CCCCN)C(=O)N[C@@H](CCCN=C(N)N)C(=O)N[C@@H](CCCCN)C(=O)O)[C@@H](C)CC)[C@@H](C)CC)[C@@H](C)CC [ILILILILKRK]
Staphylococcus xylosus
  MIC: ≥ 64 µM
[1]
  MIC: ≥ 64 µM

## CC[C@H](C)[C@H](NC(=O)[C@@H](NC(=O)CNC(=O)[C@@H](NC(=O)[C@@H](NC(=O)[C@H](Cc1cnc[nH]1)NC(=O)CNC(=O)[C@H](CC(C)C)NC(=O)[C@@H](NC(=O)[C@H](Cc1cnc[nH]1)NC(=O)[C@H](CCCCN)NC(=O)[C@H](C)NC(=O)[C@@H](NC(=O)[C@H](CO)NC(=O)CNC(=O)[C@H](CC(C)C)NC(=O)[C@@H](NC(=O)[C@H](CO)NC(=O)[C@H](CC(C)C)NC(=O)[C@H](CC(C)C)NC(=O)CN)C(C)C)C(C)C)C(C)C)C(C)C)C(C)C)C(C)C)C(=O)N[C@@H](C)C(=O)N[C@@H](CCC(=O)O)C(=O)N[C@@H](Cc1cnc[nH]1)C(=O)N[C@@H](CC(C)C)C(N)=O [GLLSVLGSVAKHVLGHVVGVIAEHL]
Micrococcus luteus
  MIC: 4.99 µM (≈ 12.5 µg/mL)
Staphylococcus aureus
  MIC: 14.1 µM (≈ 35.3 µg/mL)
Leuconostoc lactis
  MIC: 4.99 µM (≈ 12.5 µg/mL)
[2]
  MIC: ≥ 39.9 µM
Escherichia coli
  MIC: > 39.9 µM
Pasteurella multocida
  MIC: ≥ 39.9 µM
Streptococcus uberis
  MIC: 4.99 µM (≈ 12.5 µg/mL)
Listeria innocua
  MIC: 20 µM (≈ 50 µg/mL)
Bacillus cereus
  MIC: 20 µM (≈ 50 µg/mL)

## CC(C)C[C@H](NC(=O)[C@H](C)NC(=O)CNC(=O)[C@@H](N)CC(C)C)C(=O)N[C@@H](Cc1ccccc1)C(=O)N[C@@H](CCCCN)C(=O)N[C@H](C(=O)N[C@@H](C)C(=O)N[C@@H](CO)C(=O)N[C@@H](CCCCN)C(=O)N[C@H](C(=O)N[C@@H](CC(C)C)C(=O)N1CCC[C@H]1C(=O)O)C(C)C)C(C)C [LGALFKVASKVLP]
Klebsiella pneumoniae
  MIC: > 149 µM
Micrococcus luteus
  MIC: ≥ 149 µM
Staphylococcus aureus
  MIC: > 149 µM
Proteus mirabilis
  MIC: ≥ 149 µM
[2]
  MIC: ≥ 149 µM
Escherichia coli
  MIC: > 149 µM
Shigella dysenteriae
  MIC: ≥ 149 µM
Pseudomonas aeruginosa
  MIC: > 149 µM
Bacillus subtilis
  MIC: ≥ 149 µM
Salmonella typhimurium
  MIC: ≥ 149 µM

## CC[C@H](C)[C@H](NC(=O)[C@@H](NC(=O)[C@@H]1CCCN1C(=O)[C@@H](NC(=O)[C@@H](NC(=O)[C@H](Cc1cnc[nH]1)NC(=O)CNC(=O)[C@H](CC(C)C)NC(=O)[C@@H](NC(=O)[C@H](Cc1cnc[nH]1)NC(=O)[C@H](CCCCN)NC(=O)[C@H](C)NC(=O)[C@@H](NC(=O)[C@H](CO)NC(=O)CNC(=O)[C@H](CC(C)C)NC(=O)[C@@H](NC(=O)[C@H](CO)NC(=O)[C@H](CC(C)C)NC(=O)[C@H](CC(C)C)NC(=O)CN)C(C)C)C(C)C)C(C)C)C(C)C)C(C)C)C(C)C)C(=O)N[C@@H](C)C(=O)N[C@@H](CCC(=O)O)C(=O)N[C@@H](Cc1cnc[nH]1)C(=O)N[C@@H](CC(C)C)C(N)=O [GLLSVLGSVAKHVLGHVVPVIAEHL]
Micrococcus luteus
  MIC: 9.82 µM (≈ 25 µg/mL)
Staphylococcus aureus
  MIC: 13.9 µM (≈ 35.3 µg/mL)
Leuconostoc lactis
  MIC: 4.91 µM (≈ 12.5 µg/mL)
[2]
  MIC: ≥ 39.3 µM
Escherichia coli
  MIC: > 39.3 µM
Pasteurella multocida
  MIC: 19.6 µM (≈ 50 µg/mL)
Streptococcus uberis
  MIC: 19.6 µM (≈ 50 µg/mL)
Listeria innocua
  MIC: 19.6 µM (≈ 50 µg/mL)
Bacillus cereus
  MIC: ≥ 39.3 µM

## CC[C@H](C)[C@H](NC(=O)[C@H](C)NC(=O)[C@H](Cc1cnc[nH]1)NC(=O)[C@@H]1CCCN1C(=O)[C@@H](NC(=O)[C@H](CC(C)C)NC(=O)[C@H](CO)NC(=O)[C@H](Cc1ccccc1)NC(=O)[C@@H]1CCCN1C(=O)[C@@H](N)Cc1ccccc1)[C@@H](C)CC)C(=O)NCC(=O)NCC(=O)N[C@@H](CC(C)C)C(=O)N[C@H](C(=O)N[C@@H](CO)C(=O)N[C@@H](C)C(=O)N[C@H](C(=O)N[C@@H](CCCCN)C(=O)O)[C@@H](C)CC)[C@@H](C)CC [FPFSLIPHAIGGLISAIK]
[3]
  MIC: ≥ 48 µM
[4]
  MIC: ≥ 64 µM
[5]
  MIC: ≥ 120 µM

## CC[C@H](C)[C@H](NC(=O)[C@H](C)NC(=O)[C@@H]1CCCN1C(=O)[C@H](CCCN=C(N)N)NC(=O)[C@@H](N)CC(C)C)C(=O)N[C@@H](CC(C)C)C(=O)N[C@H](C(=O)N[C@@H](CCCN=C(N)N)C(=O)N[C@H](C(=O)N[C@@H](CCCCN)C(N)=O)[C@@H](C)CC)C(C)C [LRPAILVRIK]
[3]
  MIC: ≥ 434 µM
[4]
  MIC: 27.2 µM (≈ 32 µg/mL)
[5]
  MIC: ≥ 109 µM

## CC(C)C[C@H](NC(=O)[C@@H](N)C(C)C)C(=O)N[C@@H](CO)C(=O)N[C@@H](C)C(=O)N[C@@H](C)C(=O)N[C@@H](CC(=O)O)C(=O)N[C@@H](CCCCN)C(=O)NCC(=O)N[C@@H](CC(N)=O)C(=O)N[C@H](C(=O)N[C@@H](CCCCN)C(=O)N[C@@H](C)C(=O)N[C@@H](C)C(=O)N[C@@H](Cc1c[nH]c2ccccc12)C(=O)NCC(=O)N[C@@H](CCCCN)C(=O)N[C@H](C(=O)NCC(=O)NCC(=O)N[C@@H](Cc1cnc[nH]1)C(=O)N[C@@H](C)C(=O)N[C@@H](C)C(=O)N[C@@H](CCC(=O)O)C(=O)O)C(C)C)C(C)C [VLSAADKGNVKAAWGKVGGHAAE]
[6]
  MIC: 27 µM (≈ 60.4 µg/mL)
Micrococcus luteus A270
  MIC: ≥ 100 µM
Escherichia coli
  MIC: 54 µM (≈ 121 µg/mL)
Listeria innocua
  MIC: ≥ 54 µM
